Data reported in PMC4707540.
Results are given in words; binding and its absence hold for the method and conditions named. In cells and extracts the contact can be indirect. Some binding calls cover weakened binding; strength is not graded here.

The chains behind the UniProt entries cited, without tags or fusion partners.
UniProt P40337: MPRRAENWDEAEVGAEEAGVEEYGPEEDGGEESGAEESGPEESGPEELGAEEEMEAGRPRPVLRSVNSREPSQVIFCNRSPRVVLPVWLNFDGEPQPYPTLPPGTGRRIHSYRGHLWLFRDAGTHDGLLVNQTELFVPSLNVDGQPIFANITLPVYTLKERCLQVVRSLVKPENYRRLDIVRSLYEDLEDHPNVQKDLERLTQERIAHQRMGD
UniProt P00441: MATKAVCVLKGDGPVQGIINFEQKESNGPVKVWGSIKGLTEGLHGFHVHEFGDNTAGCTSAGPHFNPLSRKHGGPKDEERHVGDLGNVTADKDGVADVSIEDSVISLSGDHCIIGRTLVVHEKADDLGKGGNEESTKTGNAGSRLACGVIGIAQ
UniProt Q13617: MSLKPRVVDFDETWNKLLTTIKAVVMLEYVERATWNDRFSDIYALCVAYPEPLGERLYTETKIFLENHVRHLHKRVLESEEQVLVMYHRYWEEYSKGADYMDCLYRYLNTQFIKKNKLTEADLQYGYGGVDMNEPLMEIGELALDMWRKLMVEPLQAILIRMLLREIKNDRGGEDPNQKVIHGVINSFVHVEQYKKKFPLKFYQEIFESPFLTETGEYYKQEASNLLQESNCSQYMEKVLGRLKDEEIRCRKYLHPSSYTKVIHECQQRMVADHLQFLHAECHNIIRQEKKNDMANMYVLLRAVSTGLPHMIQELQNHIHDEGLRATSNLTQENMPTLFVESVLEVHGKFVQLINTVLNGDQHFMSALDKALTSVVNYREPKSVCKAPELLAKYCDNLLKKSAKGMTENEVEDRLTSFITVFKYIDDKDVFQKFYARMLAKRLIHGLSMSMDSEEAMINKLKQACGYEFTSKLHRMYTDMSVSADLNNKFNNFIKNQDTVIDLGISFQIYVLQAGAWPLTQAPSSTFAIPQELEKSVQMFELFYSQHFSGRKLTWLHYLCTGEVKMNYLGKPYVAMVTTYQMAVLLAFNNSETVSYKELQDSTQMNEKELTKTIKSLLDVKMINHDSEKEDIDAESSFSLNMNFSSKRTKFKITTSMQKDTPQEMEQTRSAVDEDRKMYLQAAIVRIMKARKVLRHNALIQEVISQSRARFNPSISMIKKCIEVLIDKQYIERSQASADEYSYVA

How the values were obtained:
[1] = biological target: human VHL tagged with HA (HA-VHL) (human) (UniProt P40337); assay: co-IP; lysates of HEK293A cells transfected with HA-VHL, immunoprecipitated with anti-HA affinity beads, blotted for endogenous proteins; with or without lactacystin
[2] = biological target: TDP-43-FLAG C175S (human) (UniProt Q13148); assay: co-IP; lysates of HEK293A cells co-transfected with a FLAG-tagged protein (TDP-43 or SOD1 forms) and HA-VHL, 48 h after transfection; anti-FLAG M2 affinity gel at 4 °C overnight, blotted with anti-HA; co-IP buffer (20 mM HEPES pH 7.4, 125 mM NaCl, 2 mM EDTA, 1% Triton X-100, 10% glycerol); in some panels cells treated with lactacystin (10 μM, 8 h) and/or paraquat (0.4 mM, 8 h)
[3] = biological target: TDP-43-FLAG D247N (human) (UniProt Q13148); assay: as above
[4] = biological target: TDP-43-FLAG E246Q/D247N (QN) (human) (UniProt Q13148); assay: as above
[5] = biological target: TDP-43-FLAG ΔNES (human) (UniProt Q13148); assay: as above
[6] = biological target: TDP-43-FLAG ΔNES1 (human) (UniProt Q13148); assay: as above
[7] = biological target: TDP-43-FLAG ΔNES2 (human) (UniProt Q13148); assay: as above
[8] = biological target: WT SOD1-FLAG (UniProt P00441); assay: as above
[9] = biological target: WT TDP-43-FLAG (human) (UniProt Q13148); assay: as above
[10] = biological target: FLAG-CUL2 (UniProt Q13617); assay: co-IP; lysates of HeLa cells co-transfected with TDP-43-GFP (WT or mNLS) and FLAG-CUL2; immunoprecipitated with anti-FLAG or anti-GFP affinity beads, blotted with anti-GFP or anti-FLAG

## endogenous TDP-43 (from UniProt Q13148 1-414)
[1]
  binding: binds

## human VHL tagged with HA (HA-VHL) (from UniProt P40337 1-213)
[2]
  binding: binds
[3]
  binding: binds
[4]
  binding: no binding
[5]
  binding: binds
[6]
  binding: binds
[7]
  binding: binds
[8]
  binding: no binding
[9]
  binding: binds

## wild type (WT) TDP-43-GFP (from UniProt Q13148 1-414)
[10]
  binding: binds
